Measurements taken from patent US20230272055A1, “ANTI-MUTANT CALRETICULIN (CALR) ANTIBODIES AND USES THEREOF” (Incyte Corporation, priority 2021, published 2023).
Numbering of substitutions follows the chain as printed.

B1: 64 (antibody)
heavy: EVQLVQSGAEVKKPGASVKVSCKVSGYTLTELSMQWVRQAPGKGLEWMGGFDPDDAETMYAEKFQGRLTVTEDTSTDTVYMELSSLRSEDTAVYFCATSPGYDFFDYWGQGTLVTVSSASTKGPSVFPLAPSSKSTSGGTAALGCLVKDYFPEPVTVSWNSGALTSGVHTFPAVLQSSGLYSLSSVVTVPSSSLGTQTYICNVNHKPSNTKVDKRV[omitted - human IgG1 Fc with changes]
light: QSALTQPASVSGSPGQSITISCTGTSSDVGGYNYVSWYQQHPGKAPKLMIYEVSNRPSGVSNRFSGSNSGNTATLTINRVEAGDEADYYCQVWDSSNDLLIFGGGTKLTVLGQPKAAPSVTLFPPSSEELQANKATLVCLISDFYPGAVTVAWKADSSPVKAGVETTTPSKQSNNKYAASSYLSLTPEQWKSHRSYSCQVTHEGSTVEKTVAPTECS
B2: 70 (antibody)
heavy: EVQLVQSGAEVKKPGASVKVSCKVSGYTLTELSMQWVRQAPGKGLEWMGGFDPDDGETMYAEKFQGRLTVTEDTSTDTVYMELSSLRSEDTAVYFCATSPGYDFFDYWGQGTLVTVSSASTKGPSVFPLAPSSKSTSGGTAALGCLVKDYFPEPVTVSWNSGALTSGVHTFPAVLQSSGLYSLSSVVTVPSSSLGTQTYICNVNHKPSNTKVDKRV[omitted - human IgG1 Fc with changes]
light: SYVLTQPPSVSVAPGKTARITCTGTSSDVGGYNYVSWYQQKPGQAPVLVVYEVSNRPSGIPERFSGSNSGNTATLTISRVEAGDEADYYCQVWDSSNDLLIFGGGTKLTVLGQPKAAPSVTLFPPSSEELQANKATLVCLISDFYPGAVTVAWKADSSPVKAGVETTTPSKQSNNKYAASSYLSLTPEQWKSHRSYSCQVTHEGSTVEKTVAPTECS
B3: 75 (antibody)
heavy: EVQLVQSGAEVKKPGASVKVSCKVSGYTLTELSMQWVRQAPGKGLEWMGGFDPDDGETMYAEKFQGRLTVTEDTSTDTVYMELRSLTSEDTALYFCATSPGYDFFDYWGQGTLVTVSSASTKGPSVFPLAPSSKSTSGGTAALGCLVKDYFPEPVTVSWNSGALTSGVHTFPAVLQSSGLYSLSSVVTVPSSSLGTQTYICNVNHKPSNTKVDKRV[omitted - human IgG1 Fc with changes]
light: SYVLTQPPSVSVAPGKTARITCGGNNIGSKSVHWYQQKPGQAPVLVVYDDSDRPSGIPERFSGSNSGNTATLTISRVEAGDEADYYCQVWDSSNDLLIFGGGTKLTVLGQPKAAPSVTLFPPSSEELQANKATLVCLISDFYPGAVTVAWKADSSPVKAGVETTTPSKQSNNKYAASSYLSLTPEQWKSHRSYSCQVTHEGSTVEKTVAPTECS
B4: 69 (antibody)
heavy: EVQLVQSGAEVKKPGASVKVSCKVSGYTLTELSMQWVRQAPGKGLEWMGGFDPDDAETMYAEKFQGRLTVTEDTSTDTVYMELRSLTSEDTALYFCATSPGYDFFDYWGQGTLVTVSSASTKGPSVFPLAPSSKSTSGGTAALGCLVKDYFPEPVTVSWNSGALTSGVHTFPAVLQSSGLYSLSSVVTVPSSSLGTQTYICNVNHKPSNTKVDKRV[omitted - human IgG1 Fc with changes]
light: B2 light
B5: 79 (antibody)
heavy: EVQLVQSGAEVKKPGASVKVSCKVSGYTLTELSMQWVRQAPGKGLEWMGGFDPDDAETMYAEKFQGRLTVTEDTSTDTVYMELRSLTSEDTALYFCATSPGYDFFDYWGQGTLVTVSSASTKGPSVFPLAPSSKSTSGGTAALGCLVKDYFPEPVTVSWNSGALTSGVHTFPAVLQSSGLYSLSSVVTVPSSSLGTQTYICNVNHKPSNTKVDKRV[omitted - human IgG1 Fc with changes]
light: B3 light
B6: 58 (antibody)
heavy: EVQLVQSGAEVKKPGASVKVSCKVSGYTLTELSMQWVRQAPGKGLEWMGGFDPDEGETMYAEKFQGRLTVTEDTSTDTVYMELRSLTSEDTALYFCATSPGYDFFDYWGQGTLVTVSSASTKGPSVFPLAPSSKSTSGGTAALGCLVKDYFPEPVTVSWNSGALTSGVHTFPAVLQSSGLYSLSSVVTVPSSSLGTQTYICNVNHKPSNTKVDKRV[omitted - human IgG1 Fc with changes]
light: B1 light
B7: 84 (antibody)
heavy: EVQLVQSGAEVKKPGASVKVSCKVSGYTLTELSMQWVRQAPGKGLEWMGGFDPDDAETMYAEKFQGRLTVTEDTSTDTVYMELSSLRSEDTAVYFCATSPGYDFFDYWGQGTLVTVSSASTKGPSVFPLAPSSKSTSGGTAALGCLVKDYFPEPVTVSWNSGALTSGVHTFPAVLQSSGLYSLSSVVTVPSSSLGTQTYICNVNHKPSNTKVDKRV[omitted - human IgG1 Fc with changes]
light: B3 light
B8: 63 (antibody)
heavy: EVQLVQSGAEVKKPGASVKVSCKVSGYTLTELSMQWVRQAPGKGLEWMGGFDPDEGETMYAEKFQGRLTVTEDTSTDTVYMELSSLRSEDTAVYFCATSPGYDFFDYWGQGTLVTVSSASTKGPSVFPLAPSSKSTSGGTAALGCLVKDYFPEPVTVSWNSGALTSGVHTFPAVLQSSGLYSLSSVVTVPSSSLGTQTYICNVNHKPSNTKVDKRV[omitted - human IgG1 Fc with changes]
light: B1 light
B9: 179 (antibody)
heavy: EVQLVQSGAEVKKPGASVKVSCKVSGYTLTELSMQWVRQAPGKGLEWMGGFDPDDAETMYAEKFQGRLTVTEDTSTDTVYMELSSLRSEDTAVYFCATSPGYDFFDYWGQGTLVTVSSASTKGPSVFPLAPSSKSTSGGTAALGCLVKDYFPEPVTVSWNSGALTSGVHTFPAVLQSSGLYSLSSVVTVPSSSLGTQTYICNVNHKPSNTKVDKRV[omitted - human IgG1 Fc with changes]
light: B3 light with K16Q, N25S, N26D, S29D, K30E, S31I, V77A, E78Q, N94S, L96H
B10: 138 (antibody)
heavy: EVQLVQSGAEVKKPGASVKVSCKVSGYTLTELSMQWVRQAPGKGLEWMGGFDPDDAETMYAEKFQGRLTVTEDTSTDTVYMELRSLTSEDTALYFCATSPGYDFFDYWGQGTLVTVSSASTKGPSVFPLAPSSKSTSGGTAALGCLVKDYFPEPVTVSWNSGALTSGVHTFPAVLQSSGLYSLSSVVTVPSSSLGTQTYICNVNHKPSNTKVDKRV[omitted - human IgG1 Fc with changes]
light: B3 light with N25D

Each molecule was assayed against T1, recombinant MBP-mutCALR Type 1 fusion protein (Homo sapiens, UniProt P27797, DEL40-40) (assay: Biacore SPR binding kinetics, Experiment 2 (parental and variant antibodies)). Settings: Biacore 8K, 25° C., 1:1 binding model.
T1 construct: His6 (N); purchased Cepter (cepterbiopartners.com), custom made
Description: The amino acid sequence of recombinant MBP-mutCALR Type 1 fusion protein used in Experiments 1 and 2 is:
Experiment 2: Recombinant MBP-mutCALR Type 1 fusion protein was custom made at Cepter (cepterbiopartners.com). Data for the interaction of antibodies with recombinant mutCALR protein were collected at 25° C. on a Biacore 8K instrument (Cytiva, Marlborough, Mass.), and all reagents were obtained from Cytiva unless otherwise specified. The experiments were conducted using Tris-buffered saline (pH 7.2), 0.005% Surfactant P20, 1 mM CaCl2) as running buffer. To prepare the capture surfaces, anti-human IgG (Fc) antibodies (Product #29234600) was amine-coupled onto a CM4 chip (Product #BR100534) under standard conditions using an Amine Coupling Kit (Product #BR100050). Anti-mutCALR antibodies were captured onto the chip surface by injecting over flow cell 2 only at a flow rate of 10 μL/min for 30 seconds. […] Recombinant MBP-mutCALR Type 1 fusion protein was prepared at nominal concentrations of 0, 0.75, 2.22, 6.67, 20, and 60 nM and injected over both flow cells 1 and 2 for 150 seconds at a flow rate of 69 L/min, followed by a 230-second dissociation phase at the same flow rate. The kinetics parameters were obtained by applying 1:1 binding model to fit the data from multiple-cycle injection experiments using Biacore Insight Evaluation software.

In order of rising “ka” value:
1. B7  892000 M⁻¹ s⁻¹
2. B2  987000 M⁻¹ s⁻¹
3. B8  2.83e+06 M⁻¹ s⁻¹
4. B1  3.89e+06 M⁻¹ s⁻¹
5. B5  4.53e+06 M⁻¹ s⁻¹
6. B3  6.12e+06 M⁻¹ s⁻¹
7. B6  6.76e+06 M⁻¹ s⁻¹
8. B10  7.86e+06 M⁻¹ s⁻¹
9. B4  9.94e+06 M⁻¹ s⁻¹
10. B9  1e+07 M⁻¹ s⁻¹

In order of falling “kd” value:
1. B10  0.00688 s⁻¹
2. B9  0.00681 s⁻¹
3. B5  0.00631 s⁻¹
4. B4  0.00527 s⁻¹
5. B3  0.0039 s⁻¹
6. B1  0.00248 s⁻¹
7. B6  0.00232 s⁻¹
8. B7  0.0018 s⁻¹
9. B2  0.000953 s⁻¹
10. B8  0.000691 s⁻¹
